Assay results taken from publication PMC4336329 (PLoS ONE, 2015).
Only a part is listed here, and it is no random draw. Effects have a minus sign here.

molecular target: human ether-à-go-go-related gene (hERG) potassium channel (human, UniProt Q12809); experiment: primary screen, population patch clamp on CHO cells stably expressing hERG; higher = less effect of the substance
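Also: peak tail current of the secondary pulse compared with the same well before compound.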

| Compound | hERG current change (%, negative = inhibition) at 10uM |
| --- | --- |
| Cl.Fc1ccc(C(c2ccc(F)cc2)N2CCN(C/C=C/c3ccccc3)CC2)cc1 | -9.23% |
| CCN(CC)CCOC(=O)C1(C2CCCCC2)CCCCC1.Cl | -22.1% |
| Cl.OCCN1CCN(CCCN2c3ccccc3Sc3ccc(C(F)(F)F)cc32)CC1 | -42.5% |
| CCCCCCCCc1ccc(O)cc1 | 6.97% |
| CN(C)C(=O)C(CCN1CCC(O)(c2ccc(Cl)cc2)CC1)(c1ccccc1)c1ccccc1.Cl | -77.9% |
| Clc1ccc(CO/N=C(\Cn2ccnc2)c2ccc(Cl)cc2Cl)c(Cl)c1.O=[N+]([O-])O | 8.99% |
| CN(C)CCOC(c1ccccc1)c1ccccc1.Cl | -18.8% |
| C[C@@H]1C[C@H]2[C@@H]3CCC4=CC(=O)C=C[C@]4(C)[C@@]3(F)[C@@H](O)C[C@]2(C)[C@@]1(O)C(=O)COP(=O)([O-])[O-].[Na+] | 9.09% |
| CC(C)(O)c1ccccc1CC[C@@H](SCC1(CC(=O)[O-])CC1)c1cccc(/C=C/c2ccc3ccc(Cl)cc3n2)c1.[Na+] | 11.3% |
| CCCCc1oc2ccccc2c1C(=O)c1cc(I)c(OCCN(CC)CC)c(I)c1.Cl | 4.34% |
| CNCCC(Oc1ccc(C(F)(F)F)cc1)c1ccccc1.Cl (centres unmarked) | -56.2% |
| CN(C)CC/C=C1\c2ccccc2COc2ccccc21.Cl | -28.3% |
| Cl.Oc1ccc2c3c1OC1C(O)CC[C@@]4(O)[C@@H](C2)N(CC2CCC2)CC[C@]314 (some centres unmarked) | -1.69% |
| Clc1ccc(CSC(Cn2ccnc2)c2ccc(Cl)cc2Cl)cc1.O=[N+]([O-])O (centres unmarked) | -1.83% |
| CCN(CC)CC#CCOC(=O)C(O)(c1ccccc1)C1CCCCC1.Cl (centres unmarked) | -21.8% |
| CN1C2CCC1CC(OC(c1ccccc1)c1ccccc1)C2.CS(=O)(=O)O (centres unmarked) | -70.7% |
| CN1CCC(=C2c3ccccc3C=Cc3ccccc32)CC1.Cl | -1.08% |
| CCN[C@H]1C[C@H](C)S(=O)(=O)c2sc(S(N)(=O)=O)cc21.Cl | 9.82% |
| CCCN1CCC[C@@H]2Cc3[nH]ncc3C[C@H]21.Cl | 4.96% |
| CCN(CC)CCOc1ccc(/C(=C(/Cl)c2ccccc2)c2ccccc2)cc1.O=C(O)CC(O)(CC(=O)O)C(=O)O | 8.47% |
